# Laboratory results from the supplement of paper PMC12632987.
# Over roughly 2,300 sequences, “median log2 fold change of GCK-ALFA target abundance (FLAG IP / Myc IP barcode read proportion)” has its median near 0.095; the lowest 2% begin near -0.47. The list shows a part of the results.
# B1: LC3A_132_247 (protein)
# chain: SEEELEKALEELKEILEKIVELLKAGKDPLPQIVKLEELAREIAKKLSLEETEKLVDEAIEYAEELFEKELDPNDEEARRTLDIIEMSLEGVLIEKELES
# B2: LC3A_132_288 (protein)
# chain: QEEKYKKLLEEAKKLVEEMKENIDDEEKVEKLLEELEKVMEEAKEKLSPELLAAFFEELEELLEELAEEFDEAGKEELALKADSLAIEAASLALRAKEEI
# B3: LC3A_127_187 (protein)
# chain: KKEELLKEIIKKADEAIEELSKPNYDKEKIKKLLEEMKKLAEEALKLDESFKPLLEDVKKAKELFEQLLKASPEEQESLRSLLIMLLEGIRIEAELLLLK
# B4: LC3A_28_655 (protein)
# chain: MSIEEIIEKALEEAKKAKEAGEPTVITITVSGDANEEDIERVIETLEEIAELLKDIKGSAIIIDLTGNLDEEYRDRLIDKAEELEEKYPNVTVIIAEEEE
# B5: LC3A_3_1353 (protein)
# chain: MEELIKEAVERLKAAGLSEKVVEAAERAMKALAKQGHEEAIKLLTEALLKHKDAPEEHLIKVLENLTKELEANPNLTEEEVKELVELADNDLAIEPLEEE
# B6: LC3A_23_622 (protein)
# chain: MYKVTVEADTIATPEEAEKYIKLVKEKVEEIKEKYKDKIEEVKLEIEREELPDGTVYLHITVTIIVKDDEELAQKLKNELVDFFDKNIPNGVISYEIEKL
# B7: LC3A_28_766 (protein)
# chain: MTIEEEVERAIEKAKEAKEKGEEAVIEIKVPDGATQEDVEVVIEGLEKIAEITKDMESVAIVIDVDGGVKQENLDKLAKKAEEIEKKYPNVTVIIALDEE
# B8: LC3A_3_1455 (protein)
# chain: IEKAKKELREILESNGADEETIEAAEKLLDALAKKGYEKAIEKVIEELKKMKNVPSEILKDMFEELLKIVETEDLSEEELIKKIEEEANAAKSEAEIIEL
# B9: LC3A_free_0_2094 (protein)
# chain: KTTVVEVVAISDKKVSEEDVKKIKEELEKLAKEIEKKYGAKVKVEVKDVDGRTVFTVTVEKEGLSIDEGLEIADEVADLLEEKFKELGIDATIYTSVYYE
# B10: LC3A_28_1326 (protein)
# chain: SHIEKELEKAEKEAEEALAAGEDALITIKIKPTTTVEEAKELMEKLEEIVEKYAPKQKISIIIDVESGVAQEVIDVIAEKAEEIEEKYPNVTVIIALDED
# B11: LC3A_28_1144 (protein)
# chain: SAGVEAAKAQIDADAEADKDEPEALLTATITSEATVEDVREIMEHVREIVEKLKHKEKIYVIINFEEPVSQEVLDEALRLGDEIEKEFPNVSVIVALPED
# B12: LC3A_3_1435 (protein)
# chain: MEELEEEAEEVLEEIGASEEAKEAVLRIVRIALEAGEEEEVEELIEVLKKAKNVPSEEVLEAAERALRKIEEEGKPVEEVLRELIEELRVLALEQEIEEL
# B13: LC3A_free_46_2334 (protein)
# chain: TLVVVEVDVLAPDRATAEAFVADLEARIRARLAEAGIDAEVEVELEEGPDGKTFRVTVKVRLKDPEADPQEVADLVVDAIDESAEEHGLSYIISVEIIEE
# B14: LC3A_3_1443 (protein)
# chain: SEEILKEAKEVAEKIGLSPEAIKAFLELIKLALEAGEEEEAKELIKVLEESKDVESEDILKIAEEALRRIKEEGVSIKEAIEEAIEELRVLRLEKEIEEL
# B15: LC3A_28_972 (protein)
# chain: SELDKELEKALKEAKEAAKAGEPPVIVLKVPGSKDPEDTEKVIKALEEIAEILKDVKGAAIIIDIDGGVTQEHQNKIIDAAEEIEKKYPNVTVIIALEEQ
# B16: LC3A_28_737 (protein)
# chain: SAIEENLKKAIAEAKAAAAAGESKVITITVPGTANEEDIEKVIKALEEIAEILKDVKDQAIIIDIDGKLDPELLKKLMDKADEIEKKYPNVTVIIALDEE
# B17: LC3A_3_1837 (protein)
# chain: LEEEREALLKALEEAGHSQETLDAVQRTIDALLAKGYEEAARTFIELLRENIHLPSELILELAQEVLELVETEDLSEEELTEEIKKLFRLYKNEYEIEEL
# B18: LC3A_132_302 (protein)
# chain: EEELAKELIEIAKEALRIAKEDPEKVEEVLKLLEEIEKLLKKLEKEVSPELAAKTFEEVEDILIELSRIAAKKGKDEVADKAFALAAEAAQLASDARAKI
# B19: LC3A_free_39_2233 (protein)
# chain: MEEELEKLIKEVAKEAGVDYEYVKKKIKEIQEVAGLSLEQMLEIVKALLEAVKAGADAEEILDRMLEIAKKLKEEGKSPEEILEAILEEIEDARNLIPLD
# Molecular target: MAP1LC3A, Q9H492
# Assay: median log2 fold change of GCK-ALFA target abundance (FLAG IP / Myc IP barcode read proportion) (log2 ratio); each designed protein is fused to an ALFA-tag nanobody in HEK293 cells to bring the named protein to FLAG-tagged glucokinase (GCK); Myc marks an untargeted standard; higher = target protein stabilised (more abundant)
# Conditions: target protein: 3xFLAG-MCP-GCK-ALFA reporter; HEK293 landing pad (RPLP)
# Method in brief: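 Sequencing of reverse-transcribed, amplified circular RNA barcodes from anti-FLAG and anti-Myc immunoprecipitates provided the readout for an ALFA-nanobody-fused binder library recombined into HEK293 landing-pad cells. Those cells were induced with 2 μg mL^−1 doxycycline, transfected with a plasmid expressing a FLAG-tagged target and a Myc-tagged standard, and lysed after 48 h. Target abundance is the per-binder median log2 ratio of FLAG to Myc barcode read proportions. Only barcodes at a proportion of ≥10^−7 in both replicates and binders with ≥3 barcodes per replicate were kept, with a 10^−6 pseudocount added before the two replicates were pooled.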
row,Binder,median log2 fold change
1,B1,-0.371
2,B2,0.0383
3,B3,0.195
4,B4,0.0897
5,B5,0.392
6,B6,-0.561
7,B7,0.0965
8,B8,0.272
9,B9,-0.313
10,B10,-0.0799
11,B11,0.097
12,B12,0.138
13,B13,0.0611
14,B14,0.45
15,B15,0.00741
16,B16,0.118
17,B17,-0.0141
18,B18,0.228
19,B19,0.261
